# Values joined by “and” are separate entries in the source; they are usually repeats but may differ in a detail not shown here. Equal values may be shown once. Where a name gives a salt, the structure may show the parent alone. About 620 (11%) of roughly 5,800 compounds showed activity.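 The calls were made as follows: active = score above a cut-off or among the top three wells of a plate; in these data no inactive exceeds 0.85.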 The entries are a selection whose mix differs from that of the whole data set.
# Tested on: primary human hepatic stellate cells (donor 1)
# Assay: scaled lipid accumulation score (0 = DMSO-like, 1 = nortriptyline-like); higher = stronger HSC inactivation (lipid re-accumulation), active = hit call of the paper
# Conditions: 48 h
# [1] = library stock concentration: 10 mM
# [2] = library stock concentration: 1 mM
# [3] = library stock concentration: 3.33 mM
structure (smiles),measurement,setting,value
"Ic1ccccc1CNC1C2CCN(CC2)C1C(c1ccccc1)c1ccccc1 [L-703,606 oxalate salt hydrate]",scaled lipid accumulation score,[1],inactive: 0.063
CC1(C)C(C=C(Cl)Cl)C1C(=O)OCc1cccc(Oc2ccccc2)c1 (centres undefined),scaled lipid accumulation score,[1],inactive: ≤ 0
COc1ccc2c(c1)[nH]c1c(C)nccc12 [Harmine],scaled lipid accumulation score,[2],inactive: 0.141
same,scaled lipid accumulation score,[1],inactive: 0.762
O=C1c2ccccc2C(=O)c2ccccc21 [Anthraquinone],scaled lipid accumulation score,[1],inactive: ≤ 0
CCCN(CCC)CCc1ccc(O)c(O)c1 [Dipropyldopamine hydrobromide],scaled lipid accumulation score,[1],inactive: ≤ -0.07
COc1ccc(C[C@H]2NC[C@H](O)[C@H]2OC(C)=O)cc1 [Anisomycin],scaled lipid accumulation score,[1],inactive: 0.806
COc1ccc2c(c1)/C(=C/c1cnc[nH]1)C(=O)N2,scaled lipid accumulation score,[3],inactive: ≤ 0
Cc1[nH]c2ccc(Cl)cc2c1C1=CCNCC1.Cl,scaled lipid accumulation score,[1],active: 1.1
C/C=C(\C)C(=O)N[C@@H](c1ccccc1)[C@@H](O)C(=O)O[C@H]1C[C@@]2(O)[C@@H](OC(=O)c3ccccc3)[C@@H]3[C@]4(OC(C)=O)CO[C@@H]4C[C@H](O)[C@@]3(C)C(=O)[C@H](OC(C)=O)C(=C1C)C2(C)C [Cephalomannine],scaled lipid accumulation score,[3],inactive: ≤ 0
same,scaled lipid accumulation score,[1],inactive: ≤ 0
C=C1[C@@H](O)[C@@H]2O[C@]3(CC[C@H](/C=C/[C@@H](C)[C@@H]4CC(C)=C[C@@]5(O[C@H](C[C@@](C)(O)C(=O)O)CC[C@H]5O)O4)O3)CC[C@H]2O[C@@H]1[C@@H](O)C[C@H](C)[C@H]1O[C@@]2(CCCCO2)CC[C@H]1C [Okadaic acid],scaled lipid accumulation score,library stock concentration: 600 uM,inactive: 0.393
CCC(COC(=O)c1cc(OC)c(OC)c(OC)c1)(c1ccccc1)N(C)C (centres undefined) [Trimebutine],scaled lipid accumulation score,[3],inactive: ≤ 0
same,scaled lipid accumulation score,[1],inactive: ≤ 0
NCCc1c[nH]c2ccc(O)cc12 [Serotonin],scaled lipid accumulation score,[1],inactive: ≤ -0.001
NCCc1c[nH]c2ccc(O)cc12 [Serotonin HCl],scaled lipid accumulation score,[3],inactive: ≤ 0
same,scaled lipid accumulation score,[1],inactive: ≤ -0.001
NCCc1c[nH]c2ccc(O)cc12 [Serotonin hydrochloride],scaled lipid accumulation score,,inactive: ≤ 0
same,scaled lipid accumulation score,[1],inactive: ≤ -0.07
"CNC(C)[C@H](O)c1ccccc1 (some centres undefined) [Ephedrine (1r,2s) hydrochloride]",scaled lipid accumulation score,[1],inactive: ≤ 0
CCN(C(C)=O)c1cccc(-c2ccnc3c(C#N)cnn23)c1 [Zaleplon],scaled lipid accumulation score,[1],inactive: ≤ 0
CO[C@H](C/C=C\C=C\CC/C=C/C[C@H](C)/C=C/C(=C\C(=O)O)CC(=O)O)/C(C)=C\C=C(/C)C(=O)O [Bongkrekic acid],scaled lipid accumulation score,[2],inactive: ≤ -0.014
CN(C)NC(=O)CCC(=O)O [Daminozide],scaled lipid accumulation score,library stock concentration: 80 uM,inactive: ≤ 0
same,scaled lipid accumulation score,library stock concentration: 400 uM,inactive: ≤ 0
same,scaled lipid accumulation score,library stock concentration: 2 mM,inactive: ≤ 0
same,scaled lipid accumulation score,[1],inactive: ≤ 0
O=[N+]([O-])c1ccc([As](=O)(O)O)cc1,scaled lipid accumulation score,[1],inactive: 0.03
COc1cc([C@@H]2c3cc4c(cc3[C@H](O)[C@H]3COC(=O)[C@H]23)OCO4)cc(OC)c1OC [Podophyllotoxin],scaled lipid accumulation score,,inactive: ≤ 0
same,scaled lipid accumulation score,[1],inactive: 0.288
COc1cc([C@@H]2c3cc4c(cc3[C@H](O)[C@H]3COC(=O)[C@H]23)OCO4)cc(OC)c1OC [Podofilox],scaled lipid accumulation score,library stock concentration: 4.8 mM,inactive: 0.201
same,scaled lipid accumulation score,[1],inactive: 0.419
C=C(C)[C@@H]1CCC(C)=C[C@H]1C1=C(O)C(=O)C(CCCCC)=CC1=O,scaled lipid accumulation score,[2],inactive: 0.055
CC(C)(C)NCC(O)COc1cccc2[nH]c(C#N)cc12 (centres undefined) [Cyanopindolol hemifumarate],scaled lipid accumulation score,[1],inactive: 0.049
CNC(C)C(O)c1ccccc1 (centres undefined) [Racephedrine hydrochloride],scaled lipid accumulation score,library stock concentration: 9.9 mM,inactive: ≤ 0
same,scaled lipid accumulation score,[1],inactive: ≤ 0
O=C1Nc2cc(Cl)c(Cl)cc2N2CCNCC12 (centres undefined),scaled lipid accumulation score,[1],inactive: 0.49
CCCCCCCC/C=C\CCCCCCCC(=O)OC[C@@H](COP(O)(O)=S)OC,scaled lipid accumulation score,[2],inactive: 0.084
CCC1(c2cccc(O)c2)CCCCN(C)C1 (centres undefined) [Meptazinol HCl],scaled lipid accumulation score,[3],inactive: ≤ 0
same,scaled lipid accumulation score,[1],inactive: 0.123
CCC1(c2cccc(O)c2)CCCCN(C)C1 (centres undefined) [Meptazinol hydrochloride],scaled lipid accumulation score,,inactive: 0.129
CC[C@H]1[C@@H]2C[C@H]3[C@@H]4N(C)c5ccccc5[C@]45C[C@@H]([C@@H]2[C@H]5O)N3[C@@H]1O [Ajmaline],scaled lipid accumulation score,,inactive: 0.12
same,scaled lipid accumulation score,[1],inactive: ≤ 0
CS(=N)(=O)CC[C@H](N)C(=O)O (some centres undefined) [Methionine sulfoximine (L)],scaled lipid accumulation score,,inactive: 0.025
CS(=N)(=O)CC[C@H](N)C(=O)O (stereo partly drawn) [L-Methionine sulfoximine],scaled lipid accumulation score,[1],inactive: ≤ -0.055
O=C(CCCN1CCC2(CC1)C(=O)N(Cc1cccc(F)c1)CN2c1ccccc1)c1ccc(F)cc1.O=C(O)/C=C\C(=O)O [3'-Fluorobenzylspiperone maleate],scaled lipid accumulation score,[1],active: 0.967
C[C@@H]1CC[C@H]2[C@@H](C)C(=O)O[C@@H]3O[C@@]4(C)CC[C@@H]1[C@]32OO4 [Artemisinin],scaled lipid accumulation score,,inactive: ≤ 0
same,scaled lipid accumulation score,[3],inactive: ≤ 0
same,scaled lipid accumulation score,library stock concentration: 7.1 mM,inactive: ≤ 0
same,scaled lipid accumulation score,[1],inactive: 0.151 and inactive: ≤ 0 and inactive: ≤ -0.001
CCNC1(c2cccs2)CCCCC1=O (centres undefined) [Tiletamine hydrochloride],scaled lipid accumulation score,,inactive: ≤ 0
Cc1ccc(O)cc1.Cc1cccc(O)c1.Cc1ccccc1O [Cresol],scaled lipid accumulation score,[1],inactive: 0.068
same,scaled lipid accumulation score,library stock concentration: 18.5 mM,inactive: 0.014
CCN1C[C@]2(COC)CC[C@H](O)[C@@]34C5C[C@@H]6[C@@H](OC)C[C@](O)(C(CC23)C14)C5[C@H]6OC(C)=O (some centres undefined) [Condelphine],scaled lipid accumulation score,,inactive: ≤ 0
C#C[C@]1(O)C=C[C@H]2[C@@H]3CCC4=CC(=O)CC[C@@H]4[C@H]3CC[C@@]21CC [Gestodene],scaled lipid accumulation score,[3],inactive: ≤ 0
same,scaled lipid accumulation score,[1],inactive: ≤ 0
C[C@]12Cc3c[nH]nc3C[C@@H]1CC[C@@H]1[C@@H]2CC[C@@]2(C)[C@H]1CC[C@]2(C)O [Stanozolol],scaled lipid accumulation score,library stock concentration: 6.1 mM,inactive: ≤ 0
same,scaled lipid accumulation score,[1],inactive: ≤ 0
Cc1nnc2ccc(-c3cccc(C(F)(F)F)c3)nn12,scaled lipid accumulation score,[1],inactive: 0.086
COc1cc2c(cc1-c1cc3cc4ccoc4cc3oc1=O)OCO2 [Pachyrrhizin],scaled lipid accumulation score,[1],inactive: 0.126
